Test results reported in the supplement of paper PMC10338343.
± gives the standard deviation. Whole data set: some 6,600 sequences, median “pre-steady-state target cleavage rate” near 0.07, cut for the highest 2% near 0.72. The entries are a selection whose mix differs from that of the whole data set.
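Further: 1 nM active piRISC with 0.1 nM target library at 33 °C single turnover.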

These sequences were tested on MIWI (PIWIL1) piRISC loaded with Kctd7 piRNA (30 nt) (assay: pre-steady-state target cleavage rate (min^-1); MIWI and MILI are mouse PIWI proteins and EfPiwi is from a freshwater sponge; tags in brackets are library labels; higher = faster piRNA-guided slicing of the target). Conditions: guide: Kctd7 piRNA 5'p-UGUUAAUCUCUCAGAGAAGGUGACAGUGAU; auxiliary factor: 500 nM mouse GTSF1.
Summary of the method: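 The pre-steady-state cleavage rate was calculated from a burst-and-steady-state fit. Data came from Cleave-'n-Seq, in which […] transcribed, DNA-blocked target RNA library was mixed with 1 nM active affinity-purified piRISC carrying one synthetic guide, with or without 500 nM GTSF1 partner protein, in HEPES–potassium acetate buffer at 33 °C for 0–8 or 0–960 min. Uncleaved targets were sequenced and normalised to depth and to weakly complementary targets, three trials were pooled, and k3 was capped at 0.0001 min^-1.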
For UACACUGUGUCCUUCUCUGAGAGAUUAACA, the “pre-steady-state target cleavage rate” value was 0.423 ± 0.035.
In the case of UAGACUGUCACCUUCUGAGAGAGAUUAACA, the “pre-steady-state target cleavage rate” value is reported as 0.0337 ± 0.0047.
In the case of UAGUGUGUCACCUACUCUGAGUGAUUAACA, the “pre-steady-state target cleavage rate” value is reported as 0.017 ± 0.0065.
With UUCACUGUCACCUUCUCUGAGACAUAAACA the “pre-steady-state target cleavage rate” value was 0.0192 ± 0.0056.
With UAGUGACAGUCCUUCUCUGAGACAUUAAGA the “pre-steady-state target cleavage rate” value was < 0.0001.
For UACACUGUGACCUUCUCUGAGAGAUUAACA, the “pre-steady-state target cleavage rate” value was 0.464 ± 0.037.
With UAGUCUGUUACCUUCUCUGAGAGAUUAACA the “pre-steady-state target cleavage rate” value was 0.541 ± 0.03.
With UUCUCUGUCACCUUCUGUGAGAGAUUAACA the “pre-steady-state target cleavage rate” value was 0.414 ± 0.02.
UAGUGAGUCACCUUCUCUGAGAGAUUACCA was tested, and the “pre-steady-state target cleavage rate” value was 0.258 ± 0.039.
In the case of UAGUCGUCACCUUCUCUGAGAGAUUAACA, the “pre-steady-state target cleavage rate” value is reported as 0.7 ± 0.049.
In the case of AUCACUGUCACCUUCUCUGAGAGUUUUACA, the “pre-steady-state target cleavage rate” value is reported as 0.408 ± 0.093.
With UAGACUGUCACCUUCUCUCAGAGAUUAUCA the “pre-steady-state target cleavage rate” value was 0.0732 ± 0.011.
UACACUGUCACGUUCACUGAGAGAUUAACA was tested, and the “pre-steady-state target cleavage rate” value was 0.365 ± 0.023.
In the case of UAGUGACUCACCUCUCUCUGAGAGAUUAACA, the “pre-steady-state target cleavage rate” value is reported as 0.135 ± 0.018.
AUCACUGUCACGAACUCUGAGAGAUUAACA was tested, and the “pre-steady-state target cleavage rate” value was 0.164 ± 0.02.
For AUCACUGUCAGCUUCUCUGACAGAUUAACA, the “pre-steady-state target cleavage rate” value was 0.0278 ± 0.0093.
In the case of “UAGUGACAGUGCUUCUCUGAGAGUAAUUGA [g8:g19:cont:t1A]”, the “pre-steady-state target cleavage rate” value is reported as < 0.0001.
For UAGACUGUCACCUACUCUGAGACAUUAACA, the “pre-steady-state target cleavage rate” value was 0.0108 ± 0.003.
UAGUGACAGAGCCUUCUCUGAGAGAUUAACA was tested, and the “pre-steady-state target cleavage rate” value was 0.154 ± 0.013.
With UUCACUGUCACCUUCUCUGAUGAGAUUAACA the “pre-steady-state target cleavage rate” value was 0.0181 ± 0.008.
For UUCACUGUCACCUUCUCAGUGAGAUUAACA, the “pre-steady-state target cleavage rate” value was 0.0204 ± 0.0044.
With AUCACUGACACCUUCUCUGAGAGAUUAACA the “pre-steady-state target cleavage rate” value was 0.602 ± 0.028.
For UAGUGUCUCACCUUCUCAGAGAGAUUAACA, the “pre-steady-state target cleavage rate” value was 0.235 ± 0.021.
In the case of UAGUGAGUCACCUUCUCUGUCAGAUUAACA, the “pre-steady-state target cleavage rate” value is reported as 0.0096 ± 0.0034.
For UAGACUCUCACCAUCUCUGAGAGAUUAACA, the “pre-steady-state target cleavage rate” value was 0.343 ± 0.023.
For UAGUCUGUCACCUACUCUGAGAGAUUAUCA, the “pre-steady-state target cleavage rate” value was 0.253 ± 0.038.
With AUCACACACACCUUCUCUGAGAGAUAUUGA the “pre-steady-state target cleavage rate” value was 0.0367 ± 0.014.
With UUCACUGUCUCCUUCUCUGAGUGAUUAACA the “pre-steady-state target cleavage rate” value was 0.0335 ± 0.0051.
For UAGUGACAGACCUUCUCUGAGAGAAAAACA, the “pre-steady-state target cleavage rate” value was 0.0119 ± 0.0046.
UACACUGUCACCUUCUCUGAGUGAUUAAGA was tested, and the “pre-steady-state target cleavage rate” value was 0.00609 ± 0.0048.
With UAGUCUGUCACCUUCUCUGAGAGAUUAAAA the “pre-steady-state target cleavage rate” value was 0.113 ± 0.021.
AUCACUGUCACCUUCUCUGAGAGAAAAACA was tested, and the “pre-steady-state target cleavage rate” value was 0.166 ± 0.031.
With UAGUGAGUCACCUUCUCUGAGAGAUUUAGA the “pre-steady-state target cleavage rate” value was 0.0476 ± 0.015.
In the case of UUCACUGUGACCUUCUCUCAGAGAUUAACA, the “pre-steady-state target cleavage rate” value is reported as 0.0886 ± 0.0069.
With UUCACUCUCACCUUCUCUGUGAGAUUAACA the “pre-steady-state target cleavage rate” value was 0.2 ± 0.0098.
For AUGACUGUCACCUUCUCUCAGAGAUUAACA, the “pre-steady-state target cleavage rate” value was 0.102 ± 0.0046.
UACACUGUCACCAACUCUGAGAGAUUAAGA was tested, and the “pre-steady-state target cleavage rate” value was 0.0589 ± 0.014.
For AUCACUGUCACGUUCUCUGAGAGAUUUACA, the “pre-steady-state target cleavage rate” value was 0.247 ± 0.032.
With UACACUGACACCUUCUCUGAGACAUUAACA the “pre-steady-state target cleavage rate” value was 0.197 ± 0.03.
UUCACUCUCACCUUCUCUCAGAGAUUAACA was tested, and the “pre-steady-state target cleavage rate” value was 0.104 ± 0.0088.
For UAGUGAGUCACCUUCUCUGAGAGUUUUUGA, the “pre-steady-state target cleavage rate” value was 0.0751 ± 0.018.
AUCACUGUCUCCUUCUCUGUGAGAUUAACA was tested, and the “pre-steady-state target cleavage rate” value was 0.25 ± 0.014.
For UAGUGAGUCACCUUCAGUGAGAGAUUAACA, the “pre-steady-state target cleavage rate” value was 0.121 ± 0.016.
For UAGUGAGUCUCCUUCACUGAGAGAUUAACA, the “pre-steady-state target cleavage rate” value was 0.369 ± 0.033.
In the case of UAGUGACUCACGUUCUCUGAGAGAUUAAGA, the “pre-steady-state target cleavage rate” value is reported as 0.0313 ± 0.0078.
With AUCACUGUGACCUUCUCUGAGAGAUUAACA the “pre-steady-state target cleavage rate” value was 0.664 ± 0.041.
With UAGUGAGUCCCUUCUCUGAGAGAUUAACA the “pre-steady-state target cleavage rate” value was 0.512 ± 0.044.
In the case of UAGUGACAGAGCUUCUCUGACAGAUUAACA, the “pre-steady-state target cleavage rate” value is reported as 0.00436 ± 0.0035.
With “UUCACUGUCACCUUCUCUGAGAGAUUAACG [g2:g29:cont:t1G]” the “pre-steady-state target cleavage rate” value was 0.578 ± 0.029.
UAGUCUGUCACGUUCUCUGAGACAUUAACA was tested, and the “pre-steady-state target cleavage rate” value was 0.00922 ± 0.0021.
With UUCACUGUGACCUUCUCUGUGAGAUUAACA the “pre-steady-state target cleavage rate” value was 0.198 ± 0.011.
In the case of UACACUGUCACCUUCUCUGUGACAUUAACA, the “pre-steady-state target cleavage rate” value is reported as 0.039 ± 0.0066.
For UACACUGACACCUUCUCUGAGAGAUUAACA, the “pre-steady-state target cleavage rate” value was 0.543 ± 0.036.
In the case of AUCACUGACACCUUCUCUCAGAGAUUAACA, the “pre-steady-state target cleavage rate” value is reported as 0.0989 ± 0.0085.
With UAGUGACAGUCCUUCUCUGAGAGAUUAAA the “pre-steady-state target cleavage rate” value was 0.027 ± 0.0049.
With UAGUGACAGUGCUUCUCUGAGAGAUUAGCA the “pre-steady-state target cleavage rate” value was 0.00775 ± 0.0023.
UAGACUCACACCUUCUCUGAGAGAUAUUGA was tested, and the “pre-steady-state target cleavage rate” value was 0.0233 ± 0.0066.
UAGUGUCUCACCUUCUCUGACAGAUUAACA was tested, and the “pre-steady-state target cleavage rate” value was 0.384 ± 0.029.
With UUCACUGUGUCCUUCUCUGAGAGAUAUUGA the “pre-steady-state target cleavage rate” value was 0.011 ± 0.0039.
For AUCACUGUCACCUUCUCUGAGAGAUAUAGA, the “pre-steady-state target cleavage rate” value was 0.0812 ± 0.022.
In the case of AUCACUGUCACCUUCAGAGAGAGAUUAACA, the “pre-steady-state target cleavage rate” value is reported as 0.103 ± 0.036.
In the case of UAGUGACAGUCCUCUCUGAGAGAUUAACA, the “pre-steady-state target cleavage rate” value is reported as 0.00355 ± 0.0021.
In the case of UACACUGUCACCUUCGUCUGAGAGAUUAACA, the “pre-steady-state target cleavage rate” value is reported as 0.199 ± 0.044.
In the case of UAGACUGUCACCUUCUCUGAGAGUUUAACA, the “pre-steady-state target cleavage rate” value is reported as 0.237 ± 0.03.
In the case of UUCACUGUCACCUUCUCUCUGAGAUUAACA, the “pre-steady-state target cleavage rate” value is reported as 0.0263 ± 0.0076.
For UAGUCUGUCACCUUCUCUGACUCAUUAACA, the “pre-steady-state target cleavage rate” value was 0.00675 ± 0.002.
For UAGUGACAGUCCUUCUCUGAGAGAUUAUACA, the “pre-steady-state target cleavage rate” value was 0.0212 ± 0.0053.
With AUCACUGACACCUUCACUGAGAGAUUAACA the “pre-steady-state target cleavage rate” value was 0.502 ± 0.028.
For UAGUGAGUCUCCUUCUCUGAGAGAAUAACA, the “pre-steady-state target cleavage rate” value was 0.212 ± 0.035.
In the case of UUCACUCACACCUUCUCUGAGAGAUUAACA, the “pre-steady-state target cleavage rate” value is reported as 0.546 ± 0.025.
With AUCACUGUCACUUUCUCUGAGAGAUUAACA the “pre-steady-state target cleavage rate” value was 0.794 ± 0.04.
In the case of UAGACUGUGACGUUCUCUGAGAGAUUAACA, the “pre-steady-state target cleavage rate” value is reported as 0.409 ± 0.027.
